# Laboratory results as given in PMC6760448, “The DRS–AIMP2–EPRS subcomplex acts as a pivot in the multi-tRNA synthetase complex” (IUCrJ, 2019).
# These are yes or no findings as the source states them, for the method shown. Some results given as binding are weak or reduced against the parent protein; the word gives no strength. For some assays here: Where a sequence is shown, tags or fusion partners need not be part of it.
# T1: N-terminally truncated human aspartyl-tRNA synthetase (residues Ala21–Pro501) (human) (UniProt P14868)
# T1 sequence: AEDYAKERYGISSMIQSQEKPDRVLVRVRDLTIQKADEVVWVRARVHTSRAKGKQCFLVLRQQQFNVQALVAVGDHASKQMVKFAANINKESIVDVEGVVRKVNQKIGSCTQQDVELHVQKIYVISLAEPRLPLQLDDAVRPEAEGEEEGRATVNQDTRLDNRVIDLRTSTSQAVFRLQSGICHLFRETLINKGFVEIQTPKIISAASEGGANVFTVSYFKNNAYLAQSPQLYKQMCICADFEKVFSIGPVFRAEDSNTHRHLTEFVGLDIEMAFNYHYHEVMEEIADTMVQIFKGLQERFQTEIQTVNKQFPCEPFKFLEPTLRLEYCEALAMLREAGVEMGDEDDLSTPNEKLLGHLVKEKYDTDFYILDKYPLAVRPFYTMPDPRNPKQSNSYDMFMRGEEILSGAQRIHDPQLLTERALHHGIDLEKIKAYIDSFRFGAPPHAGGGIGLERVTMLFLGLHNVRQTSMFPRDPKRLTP
# T2: C-terminally truncated human EPRSGST (Met1–Gln157) (human) (UniProt P07814)
# T2 sequence: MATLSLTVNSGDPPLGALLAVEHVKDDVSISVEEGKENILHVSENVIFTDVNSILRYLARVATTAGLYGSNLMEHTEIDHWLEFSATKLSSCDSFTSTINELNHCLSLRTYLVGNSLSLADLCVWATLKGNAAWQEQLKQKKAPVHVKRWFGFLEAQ
# B1: N-terminally truncated human AIMP2 splice variant lacking exon 2 (residues Ser34–Gln45 and Asp115–Lys320) (domain or fragment, UniProt Q13155 34-45; Q13155 115-320)
# chain: SYGPAPGAGHVQDYGALKDIVINANPASPPLSLLVLHRLLCEHFRVLSTVHTHSSVKSVPENLLKCFGEQNKKQPRQDYQLGFTLIWKNVPKTQMKFSIQTMCPIEGEGNIARFLFSLFGQKHNAVNATLIDSWVDIAIFQLKEGSSKEKAAVFRSMNSALGKSPWLAGNELTVADVVLWSVLQQIGGCSVTVPANVQRWMRSCENLAPFNTALKLLK
# B2: aminoacyl-tRNA synthetase complex-interacting multifunctional protein 3 (protein, UniProt O43324 1-174)
# chain: MAAAAELSLLEKSLGLSKGNKYSAQGERQIPVLQTNNGPSLTGLTTIAAHLVKQANKEYLLGSTAEEKAIVQQWLEYRVTQVDGHSSKNDIHTLLKDLNSYLEDKVYLTGYNFTLADILLYYGLHRFIVDLTVQEKEKYLNVSRWFCHIQHYPGIRQHLSSVVFIKNRLYTNSH
# B3: C-terminally truncated human EPRSGST (Met1–Gln157) (domain or fragment, UniProt P07814 1-157, looked up)
# chain: MATLSLTVNSGDPPLGALLAVEHVKDDVSISVEEGKENILHVSENVIFTDVNSILRYLARVATTAGLYGSNLMEHTEIDHWLEFSATKLSSCDSFTSTINELNHCLSLRTYLVGNSLSLADLCVWATLKGNAAWQEQLKQKKAPVHVKRWFGFLEAQ
# notes: human glutamyl-prolyl-tRNA synthetase (EPRS), GST domain, residues Met1–Gln157; also called GST domain of glutamyl-prolyl-tRNA synthetase; source: E. coli BL21-CodonPlus (DE3)-RIPL; culture pooled with those of the partners, co-purified (HiTrap Chelating HP, Superdex 200); not shown: His6, C-terminal, kept
# Assays:
# [1] = molecular target: T1, N-terminally truncated human aspartyl-tRNA synthetase (residues Ala21–Pro501) (human); experiment: SEC; separately transformed strains pooled in one culture, proteins met on cell disruption by sonication; His6 affinity (HiTrap Chelating HP), then HiLoad 16/600 Superdex 200 pg in 50 mM HEPES–NaOH pH 8.0, 200 mM NaCl, 5 mM DTT, 1% glycerol; SDS–PAGE of the highest peak
# [2] = molecular target: T1, N-terminally truncated human aspartyl-tRNA synthetase (residues Ala21–Pro501) (human); experiment: crystal structure; DRS–AIMP2-DX2-S34–EPRSGST (DA2E) subcomplex, 3.6 Å, space group P6_(1), two subcomplexes in the asymmetric unit; crystals at 22°C from sodium/potassium phosphate, 0.1 M CAPS pH 10.5, lithium sulfate; both purified
# [3] = molecular target: T1, N-terminally truncated human aspartyl-tRNA synthetase (residues Ala21–Pro501) (human); experiment: crystal structure; crystals of the binary DA2 subcomplex, diffracted only to 4.5 Å; data not shown; both purified
# [4] = molecular target: T2, C-terminally truncated human EPRSGST (Met1–Gln157) (human); experiment: SEC; separately transformed strains pooled in one culture, proteins met on cell disruption by sonication; His6 affinity (HiTrap Chelating HP), then HiLoad 16/600 Superdex 200 pg in 50 mM HEPES–NaOH pH 8.0, 200 mM NaCl, 5 mM DTT, 1% glycerol; SDS–PAGE of the highest peak
# [5] = molecular target: T2, C-terminally truncated human EPRSGST (Met1–Gln157) (human); experiment: crystal structure; DRS–AIMP2-DX2-S34–EPRSGST (DA2E) subcomplex, 3.6 Å, space group P6_(1), two subcomplexes in the asymmetric unit; crystals at 22°C from sodium/potassium phosphate, 0.1 M CAPS pH 10.5, lithium sulfate; both purified
binder,measurement,setting,value
B1,binding,[1],binds
same,binding,[2],binds
same,binding,[3],binds
B2,binding,[4],binds
B3,binding,[5],no binding
